# From PubChem BioAssay AID504706 (National Center for Advancing Translational Sciences (NCATS), 2011)
# The campaign covered roughly 320,000 compounds. About 200 (0.062%) were called active. The inconclusive results got no clear call from the source; some entries with a clear call stand among them for comparison. Calls follow the shape of the dose curve; as a rule, active = well fitted activation curve with a large enough effect; inconclusive = small, poorly fitted or top-dose-only effect; inactive = no such curve, though single readings can be large or run the other way. No potency is given beside an inconclusive call; the fits are too rough.
# Experiment: qHTS assay for re-activators of p53 using a Luc reporter; also: nearly all actives have a fitted effect of over 45% in size
# Settings: H1299 p53-A138V BP100-luciferase reporter, luminescence, 24 h; series mostly up to 92.2 µM
# Procedure, shortened: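 H1299 (p53-null), stable ts p53-A138V + BP100-Luc; 1000 cells/well, Opti-MEM/10% FBS; cpd 4 pt, 1:5; 24 h, 37 deg C, 5% CO2; detection reagent 10 min RT; luminescence.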
# Potency is read from the fitted curve at half-maximal effect; tags tell the direction and shape of the fitted curve.
row,SMILES,Potency
1,O=S(=O)(Nc1ccc2nc(N3CCOCC3)sc2c1)c1ccccc1,"inconclusive [activator, partial curve, poor fit]"
2,Cc1ccccc1C(=O)c1cccn1CC(=O)NCc1ccccc1Cl,"inconclusive [activator, partial curve, poor fit]"
3,O=C(Nc1ccc(F)cc1F)c1noc2c1CCC2,"inconclusive [activator, partial curve, poor fit]"
4,COc1ccc(C(=O)COc2ccccc2N2C(=O)C3C4C=CC(C4)C3C2=O)cc1 (centres undefined),"inconclusive [activator, partial curve, poor fit]"
5,Cc1c(C(=O)Nc2ccc(S(=O)(=O)Nc3ncccn3)cc2)oc2ccc(Cl)cc12,inactive
6,CN1CCN(S(=O)(=O)c2ccc(NC(=O)c3ccccc3Cl)cc2)CC1,inactive
7,Cc1nc(NC(=O)c2ccccc2)sc1-c1csc(NCc2ccco2)n1,"inconclusive [activator, single point]"
8,O=C(Nc1nc2c(s1)COc1ccccc1-2)c1cccs1,"inconclusive [activator, full curve, poor fit]"
9,COc1ccc(N(CC(=O)Nc2cccc(N(C)S(C)(=O)=O)c2)S(=O)(=O)c2ccccc2)cc1Cl,inactive
10,COc1cc(/C=C(\C#N)c2nc3ccccc3n2C)cc(OC)c1O,"inconclusive [activator, single point]"
11,Cc1cnc(NC(=O)c2sc(Nc3ccccc3)nc2N)o1,inactive
12,Nc1nonc1-n1nnc(C(=O)N/N=C/c2ccc(OCc3cccc(Cl)c3)cc2)c1CN1CCCCC1,"inconclusive [activator, partial curve, poor fit]"
13,CCOC(=O)N1CCN(S(=O)(=O)c2ccc(C(=O)Nc3nc4ccccc4s3)cc2)CC1,inactive
14,CCOc1ccc(NC(=S)Nc2ccc(C)c([N+](=O)[O-])c2)cc1,inactive
15,CCCC(=O)Nc1ccc2nc(C)n(Cc3ccccc3Cl)c(=O)c2c1,"inconclusive [activator, single point]"
16,CN(C)c1ccc(/C=C(/C#N)C(=O)NCc2ccccc2)o1,"inconclusive [activator, full curve, poor fit]"
17,COc1cc(OC)cc(-c2cc3cc4c(cc3cn2)OCO4)c1,"inconclusive [activator, full curve, poor fit]"
18,O=C(CSc1cccc[n+]1[O-])Nc1c(Br)cc([N+](=O)[O-])cc1Br,inactive
19,O=C(Oc1ccc(-c2cnc3ccccc3n2)cc1)c1ccc(Br)o1,"inconclusive [activator, partial curve, poor fit]"
20,COc1ccccc1/C=C1\SC(=S)N(CCC(=O)NCCCn2ccnc2)C1=O,inactive
21,COc1ccc(C(=O)OCc2cc(=O)n3c(C)csc3n2)cc1F,"inconclusive [activator, single point]"
22,C/C(=N\NC(=S)NCc1ccccc1)c1ccccc1F,"inconclusive [activator, single point]"

row,SMILES,Potency
1,Cc1cccc(/C(N)=N/OC(=O)C23CC4CC(CC(C4)C2)C3)c1,"inconclusive [activator, partial curve, poor fit]"
2,CN(C)CCCNC(=O)c1cc(C(=O)Cc2ccc(Cl)cc2)c[nH]1,"inconclusive [activator, single point]"
3,CCc1ccc(-c2cc(C(F)(F)F)n3nc(C(=O)Nc4cnn(Cc5ccccc5C)c4)cc3n2)s1,inactive
4,COc1cc(C(=O)Nc2ccc(N(C)C)cc2)cc(OC)c1OC,"inconclusive [activator, single point]"
5,N=c1ccn(Cc2cccc(F)c2)cc1,inactive
6,O=C1CSC(=O)N1CCOCCN1C(=O)CSC1=O,"inconclusive [activator, single point]"
7,NC(=O)c1c(NC(=O)c2ccccc2F)sc2c1CCCC2,"inconclusive [activator, partial curve, poor fit]"
8,O=C1C(C=NCc2cccnc2)=C(O)c2ccccc21,"inconclusive [activator, partial curve, poor fit]"
9,O=C(NC1CCCCC1)c1sc(=S)n2c1[nH]c(=O)c1ccccc12,inactive
10,O=C(O)C1CCN(c2ccccc2[N+](=O)[O-])CC1,inactive
11,Cc1ccc(-c2noc(-c3ccno3)n2)cc1,inactive
12,CC(=O)OCC(=O)C1CCC2C3CC=C4CC(O)CCC4(C)C3CCC12C (centres undefined),inactive
13,CCOc1ccc(-c2cc(CCCC(=O)NCc3cccnc3)no2)cc1,"inconclusive [activator, partial curve, poor fit]"
14,COc1ccc(-c2nnc(NC(=O)c3cc(Cl)ccc3Cl)o2)cc1,"inconclusive [activator, full curve, poor fit]"
15,COc1ccc(/C=C2\CCCC(C(=O)C(F)(F)F)=C2O)cc1OC,inactive
16,CC(=O)c1ccc(OCCCC(=O)Nc2ccc(C)c(S(=O)(=O)N3CCCCC3)c2)cc1,inactive
17,CC1(C)CC(NC(=O)c2cc(COc3cccc(C(F)(F)F)c3)on2)CCO1 (centres undefined),"inconclusive [activator, partial curve, poor fit]"
18,Cc1onc(-c2ccccc2)c1C(=O)NNC(=S)NC(=O)c1ccc(Br)cc1,"inconclusive [activator, partial curve, poor fit]"
19,CCc1cccc(N=c2c([N+](=O)[O-])nn(-c3ccc4c(c3)OCCO4)n2O)c1,"inconclusive [activator, full curve, poor fit]"
20,CCC/C(=N/NC(=O)c1ccc2c(c1)OCO2)c1cccs1,"inconclusive [activator, partial curve]"
21,CCN(CC)c1nc(Oc2ccc(C(=O)OC)cc2)nc(N2CCOCC2)n1,"inconclusive [activator, full curve, poor fit]"
22,CC(=O)c1sc(NC(=O)c2ccc(Cn3cc(Br)cn3)o2)nc1C,inactive
